Source: PubChem BioAssay AID2147 (National Center for Advancing Translational Sciences (NCATS), 2009)
Hit rate of the full screen: of about 230,000 compounds, about 3,600 (1.6%) were called active. Inconclusive results, whose numbers are uncertain, are shown with a selection of clear calls. Calls come from the whole dose curve; as a rule, active = well fitted inhibition curve with a large enough effect (not every such curve was filed as active); inconclusive = small, poorly fitted or top-dose-only effect, or another doubt; inactive = no such curve, though single readings can be large or run the other way. Potencies of inconclusive entries are doubtful fits and often do not repeat.

Target: Lysine-specific demethylase 4E (Homo sapiens) (UniProt B2RXH2)
Assay: qHTS Assay for Inhibitors of Human Jumonji Domain Containing 2E (JMJD2E)
Settings: JMJD2E catalytic domain, FDH-coupled NADH fluorescence (FDH is formaldehyde dehydrogenase); series mostly up to 57.1 µM
Note: nearly all actives have a fitted effect of over 50% in size.
Potency is the fitted concentration of half-maximal effect; tags give direction and shape of the fitted curve.

Sequence of UniProt B2RXH2 (B2RXH2 whole entry, looked up, the tested form may be a part): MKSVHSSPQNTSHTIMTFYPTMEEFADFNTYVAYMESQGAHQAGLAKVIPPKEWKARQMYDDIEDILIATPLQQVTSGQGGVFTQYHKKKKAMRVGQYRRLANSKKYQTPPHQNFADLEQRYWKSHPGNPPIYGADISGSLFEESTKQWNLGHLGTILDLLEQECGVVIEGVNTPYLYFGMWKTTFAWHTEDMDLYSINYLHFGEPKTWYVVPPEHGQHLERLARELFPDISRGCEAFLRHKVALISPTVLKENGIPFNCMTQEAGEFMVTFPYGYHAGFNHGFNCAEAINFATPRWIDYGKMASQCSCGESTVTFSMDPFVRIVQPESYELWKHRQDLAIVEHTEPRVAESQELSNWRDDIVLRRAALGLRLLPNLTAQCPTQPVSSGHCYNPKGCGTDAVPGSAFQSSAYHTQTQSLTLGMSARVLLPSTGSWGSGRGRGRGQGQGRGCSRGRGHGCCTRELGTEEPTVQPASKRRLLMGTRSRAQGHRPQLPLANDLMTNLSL

| Compound | Potency |
| --- | --- |
| Cc1cc(C)cc(OCCCOc2cccc3cccnc23)c1 | inconclusive: 35.5 µM [inhibitor, single point] |
| CN(/N=C/c1ccncc1)c1cnc2ccccc2n1 | inconclusive: 35.5 µM [inhibitor, single point] |
| COc1ccccc1NS(=O)(=O)c1cccc(C(=O)N/N=C2\CC(=O)CC(C)(C)C2)c1 | inconclusive: 39.8 µM [inhibitor, single point] |
| CC1(C)CCC2(C(=O)O)CC[C@]3(C)C(=CCC4[C@]5(C)CCC(O)C(C)(C)C5C(O)C[C@]43C)C2C1 (some centres not stated) | inconclusive: 35.5 µM [inhibitor, single point] |
| C/C(=N\NC(=O)c1c(Cl)c(C)nn1C)c1cccc(NC(=O)COc2ccccc2)c1 | inconclusive: 31.6 µM [inhibitor, partial curve] |
| CC(C)NC(=O)c1nn(C)c2ccccc12 | inconclusive: 20 µM [inhibitor, partial curve] |
| C=CCNC(=O)/C(C#N)=C/c1c(N2CC(C)OC(C)C2)nc2ccccn2c1=O (configuration not stated) | inconclusive: 25.1 µM [inhibitor, partial curve] |
| CCN(CC)c1ccc(N=Cc2ccc([N+](=O)[O-])o2)cc1 | active: 2.82 µM |
| COc1ccc2cc(C(=O)NCc3ccco3)c(=O)oc2c1 | inconclusive: 31.6 µM [inhibitor, partial curve] |
| NC(=O)C1CCN(CC(=O)NC(=O)NC2CCCC2)CC1 | inconclusive: 1 µM [inhibitor, partial curve] |
| CCOc1ccc2[nH]c(=O)c(CN(CCN3CCCC3)C(=S)Nc3ccccc3OC)cc2c1 | inconclusive: 31.6 µM [inhibitor, single point] |
| CCOC(=O)c1sc(NC(=O)c2cccc(S(=O)(=O)N(CC)CC)c2)cc1C | inconclusive: 35.5 µM [inhibitor, single point] |
| Cc1sc2nc3ccc(N4CCCC4)nn3c(=O)c2c1C | inconclusive: 28.2 µM [inhibitor, partial curve] |
| Cc1ccc2nc(-c3ccc(NC(=O)CSc4nc(N)cc(=O)[nH]4)cc3)sc2c1 | inconclusive: 17.8 µM [inhibitor, partial curve] |
| Cc1cccc(Oc2nc3c(c(=O)n(C)c(=O)n3C)n2C)c1 | inactive |
| O=C(O)c1ccc(C2NCC(c3ccccc3Cl)c3c2[nH]c2ccccc32)cc1 (configuration not stated) | inconclusive: 28.2 µM [inhibitor, partial curve] |
| C/C(=N\Nc1cccc(C(=O)O)c1)c1ccc2c(c1)Nc1ccccc1S2 | inconclusive: 39.8 µM [inhibitor, single point] |
| CC1CCCN(c2ccc(F)cc2N)C1 (configuration not stated) | inconclusive: 39.8 µM [inhibitor, single point] |
| CC(=Nc1ccccc1)C1=C(O)COC1=O | inactive |
| Cc1ccc2nc(Cl)c(/C=N/n3c(C)nnc3C)cc2c1 | inconclusive: 39.8 µM [inhibitor, single point] |
| Cn1c(-c2ccccc2O)cc2ccccc21 | inconclusive: 28.2 µM [inhibitor, partial curve] |
| CCCCn1c(N)c(N(CC)C(=O)CSc2nnnn2-c2cc(C)ccc2C)c(=O)[nH]c1=O | inactive |
| CCOC(=O)c1c(-c2ccc(C)o2)csc1NC(=O)CSc1nnc(C)s1 | inactive |

| Compound | Potency |
| --- | --- |
| CCCCc1cc(=O)oc2cc(C)c(CN3CCCC3)c(O)c12 | inconclusive: 22.4 µM [inhibitor, single point] |
| COC(=O)Cn1c(=NC(=O)c2ccc(S(=O)(=O)N3CCc4ccccc4C3)cc2)sc2cc(OC)ccc21 | inconclusive: 28.2 µM [inhibitor, partial curve] |
| CCCN1CCC(NCc2cn(C)nc2-c2ccc(Oc3ccccc3)cc2)CC1 | inactive |
| COc1cc(OC)cc(C(=O)N2CCN(C3CCN(Cc4ccccc4)CC3)CC2)c1 | inconclusive: 31.6 µM [inhibitor, single point] |
| O=C(O)CNC(=O)c1ccc2c(c1)OCCO2 | inconclusive: 28.2 µM [inhibitor, single point] |
| CC1=C(C(=O)Nc2cccc(C)n2)C(c2ccc3c(c2)OCO3)C2=C(CC(c3ccco3)CC2=O)N1 (configuration not stated) | inconclusive: 35.5 µM [inhibitor, partial curve] |
| Cc1c(C2=CCN(S(=O)(=O)c3ccc(Cl)cc3)CC2)c2ccccc2n1C | inconclusive: 31.6 µM [inhibitor, single point] |
| CCOc1cc(/C=N/NC(=O)C(=O)NCCCOC(C)C)cc(Br)c1O | inactive |
| Cc1c(-c2ccccc2)c(P(=O)(N2CCOCC2)N2CCOCC2)c2ccccn12 | inconclusive: 25.1 µM [inhibitor, partial curve] |
| FC(F)(F)Oc1ccccc1-c1nnc(-c2cccc(C(F)(F)F)c2)o1 | inconclusive: 39.8 µM [inhibitor, single point] |
| CCCCN(CC)CCNC(=O)Cn1cnc2sc(C)c(S(=O)(=O)N3CCOCC3)c2c1=O | inactive |
| COC(=O)c1ccc(Cn2cnc3c(sc4nc(N5CCOCC5)c5c(c43)CCCC5)c2=O)o1 | inconclusive: 22.4 µM [inhibitor, partial curve] |
| COC(=O)c1c(NC(=O)c2ccc(C)o2)sc2c1CCCCC2 | inconclusive: 28.2 µM [inhibitor, partial curve] |
| Cc1ccc(CNC(=O)COC(=O)CSc2ccc(Br)cc2C)cc1 | inactive |
| Cc1cc(C)n(-c2nc3ccccc3nc2N2CCN(S(=O)(=O)c3ccc4ccccc4c3)CC2)n1 | inconclusive: 28.2 µM [inhibitor, partial curve] |
| Cc1cccc2nc(COc3ccc4ccccc4c3Br)cn12 | inactive |
| O=c1cc(CN2CCN(Cc3ccccc3)CC2)c2cc3c(cc2o1)CCC3 | inconclusive: 25.1 µM [inhibitor, single point] |
| CCC(=O)c1ccc(OC(=O)c2cnccn2)cc1 | inconclusive: 35.5 µM [inhibitor, single point] |
| CN(C)c1ccc(N2C(=O)CC(Nc3ccc(N4CCOCC4)cc3)C2=O)cc1 (configuration not stated) | inactive |
| CN(CCC#N)C(=O)COC(=O)/C=C/c1ccc2c(c1)OCO2 | inconclusive: 28.2 µM [inhibitor, partial curve] |
| N#Cc1c(NCCN)nc(NCc2ccccc2)c2c1CCN(Cc1ccccc1)C2 | inconclusive: 25.1 µM [inhibitor, partial curve] |
| COc1cc(OC)cc(-c2cc3nc(C)cc(N4CCN(C(=O)c5ccco5)CC4)n3n2)c1 | inconclusive: 31.6 µM [inhibitor, partial curve] |
| CC1=C(C(=O)OCc2ccc3c(c2)OCO3)C(c2ccccc2OCc2ccccc2)NC(=O)N1 (configuration not stated) | inconclusive: 39.8 µM [inhibitor, single point] |

| Compound | Potency |
| --- | --- |
| Oc1c(Cl)cc(Cl)cc1C=Nc1ccccc1N1CCCC1 | inconclusive: 25.1 µM [inhibitor, single point] |
| CCOC(=O)c1sc(=S)n(-c2ccc(F)c(F)c2)c1N | inactive |
| COc1ccc(C2C(C(=O)NCCN3CCOCC3)c3ccccc3C(=O)N2C)cc1OC (configuration not stated) | inconclusive: 31.6 µM [inhibitor, partial curve] |
| Cc1cccc(NC(=O)c2cc3c([nH]c4ccccc43)c(C)n2)c1C | inconclusive: 39.8 µM [inhibitor, single point] |
| CCCCCC(/C=N/Nc1ccc(S(=O)(=O)N2CCOCC2)cc1[N+](=O)[O-])=C\c1ccccc1 | inactive |
| CCOc1ccc2nc(NC(=O)c3ccc(OCC4CCCO4)cc3)sc2c1 (configuration not stated) | inconclusive: 31.6 µM [inhibitor, partial curve] |
| Cn1cc(CNC(=O)CC2C(=O)NCCN2CC(C)(C)C)cn1 (configuration not stated) | inconclusive: 28.2 µM [inhibitor, single point] |
| O=C(CN1CCCc2ccccc21)NC(=O)NC1CCCCC1 | inconclusive: 31.6 µM [inhibitor, single point] |
| Cc1nnc(SC(C(=O)c2ccccc2)c2ccccc2)[nH]c1=O (configuration not stated) | inactive |
| CCOc1ccc2nc(NC(=O)CSc3nnnn3C3CCCCC3)sc2c1 | inconclusive: 22.4 µM [inhibitor, single point] |
| Cc1ccccc1-c1cc(C(=O)Nc2nc3c(s2)CCCC3)c2ccccc2n1 | inconclusive: 39.8 µM [inhibitor, single point] |
| c1cncc(-c2nn3c(Cn4nnc5ccccc54)nnc3s2)c1 | inconclusive: 39.8 µM [inhibitor, single point] |
| CCN(CC)S(=O)(=O)c1ccc(C)c(NC(=S)NNC(=O)C2CC2)c1 | inactive |
| O=C(/C=C/c1ccc(S(=O)(=O)N2CCOCC2)cc1)NC(=S)Nc1ccc(Cl)cc1Cl | inactive |
| Cc1ccc(NC(=O)c2ccc(-n3cccn3)nc2)cc1 | inconclusive: 39.8 µM [inhibitor, single point] |
| COc1ccc2c(-c3ccccc3)cc(SCC(=O)N(C)C)nc2c1 | inconclusive: 35.5 µM [inhibitor, single point] |
| Cc1cc2c(cc(C(=O)NCc3cccnc3)n2Cc2ccc(Cl)cc2)o1 | inconclusive: 25.1 µM [inhibitor, single point] |
| FC(F)(F)c1nc(=S)c2ccccc2[nH]1 | active: 10 µM |
| Cc1cc(Cl)c(OCCOCCN2CCCC(C)C2)c(Br)c1 (configuration not stated) | inconclusive: 35.5 µM [inhibitor, single point] |
| Cc1cc(C)nc(N2CCC(C(=O)NCc3ccco3)CC2)n1 | inconclusive: 4.47 µM [inhibitor, full curve] |
| Cc1ccc(C(=O)NC(=S)NNC(=O)c2ccccc2[N+](=O)[O-])cc1 | inconclusive: 39.8 µM [inhibitor, single point] |
